Data: publication PMC10611586
Results are given in words; binding and its absence hold for the method and conditions named.

Target: HA–Fubi-VS (C57L, from GST–3C-GS-HA–Fubi^1–73) (human) (UniProt P62861)
Assay: activity-based probe labelling (covalent conjugate), western blot; HEK293 lysate (endogenous or overexpressed Flag-tagged full-length USP) at 2 mg/ml incubated with 10 µM probe for 1 h at 37 °C; SDS-PAGE and western blotting; only the target purified

Q: For “Flag–USP7, full length (from UniProt Q93009 1-1102) (enzyme)”, which binding is on record?
A: no binding (tested: 10 µM probe)
